The supplement of paper PMC8728848
This is one part of the list.

Tests used:
[1] = biological target: Neu5Gc(a2-8)Neu5Gc(a2-6)Gal(b1-4)GlcNAc; experiment: glycan array binding signal (z-score within array); higher = stronger binding; settings: glycan notation: IUPAC condensed, linker removed
Outline: (§1)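 Arrays were curated from the Consortium for Functional Glycomics database, 3228 in total, and kept only where the protein sequence was available. Binding is expressed as a within-array Z-score. This score was averaged across arrays of the same protein sequence at different concentrations or buffers and across linkers, and negative values can be read as non-binding.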

[2] = biological target: Neu5Gc(b2-6)Gal(b1-4)GlcNAc; experiment: as above; settings: glycan notation: IUPAC condensed, linker removed
Outline: as §1

B1: SialidaseA (Arthrobacter ureafaciens) (protein)
chain: MRSNSTSAPSLVRRAATGVLTCAVSIGLLAGLGLPAQAAPTPPNSPTLPPGSFSETNLAADRTAANFFYRIPALTYLGNDVVLAAWDGRPGSAADAPNPNSIVQRRSTDGGKTWGPVQVIAAGHVADASGPRYGYSDPSYIYDAEANKVFAFFVYSKDQGFGGSQFGNDDADRNVISSAVIESSDAGVTWSQPRLITSVTKPGTSKTNPAAGDVRSNFASSGEGIQLKYGPHKGRLIQQYAGDVRQADGSNKIQAYSVYSDDHGVTWHKGANVGDRMDENKTVELSDGRVLLNSRDNANRGYRKVAVSTDGGATYGPVSQDTELPDPANNGAIARMFPNAAQGSADAKKLIFTNANSKTGRENVSARVSCDDGETWPGVRTIRSGFSAYSTVTRLADGKFGVLYEGNYTDNMPFATFDDAWLNYVCAPLAVPAVNIAPSATQEVPVTVTNQEATTLSGATATVYTPSGWSATTVPVPDVAPGASVTVTVALTAPADASGPRSLNAAFTTADGRVSQFTFTATTPVAPQVGLTITGSAPARDVAANPYQAGDVLGYTLNVKSTANVAANSVPLTGTFDSGFLPPAAPNCRYNNLAAGASYNCTTAKHTITAADMERGYFVPEATFSITSTTTPSLTKTVQFTGAAVALRDGLISADISGARTDVGRDLATRPYAAGELVPYAFTVKNTSPFVEQVVPTAGNFSPFLPAGAGNCRYLSLPAGQSYECATPRHAVTAEEVEQGFFVPDTTWEVSAAGQSTRTYRINGGEVDLLVRDAALSATVVAEWKDADGDRFASAGDPVTFTYTVGNAGNVALTGLEAPDAGISLPFLAPGDTATATREHVLTAADVAGGSLAASAFEATARNGSKEVTATAEGQPLELKVQPAQPSKEPELTVQDLEDQTPPFDLGTAFKYRTGQKVSLAGLEYGQWYYVYLNKTGYRLGWMFPTTGDTVEFILPPEVRNGRDDVVVLDKDGRRVSFDRLQVTPKGEKI
With B1 the “glycan array binding signal (z-score)” value [1] was 1.47 and the “glycan array binding signal (z-score)” value [2] was 2.17.
